Experimental data: PMC4336329 (PLoS ONE, 2015)
In all, about 310,000 compounds went through this assay and about 2,200 (0.71%) showed an effect of 50% or more. Effects have a minus sign here. The list shows a part of the results.

target: human ether-à-go-go-related gene (hERG) potassium channel (human, UniProt Q12809); experiment: primary screen, population patch clamp on CHO cells stably expressing hERG
Sequence (Q12809 whole entry, looked up): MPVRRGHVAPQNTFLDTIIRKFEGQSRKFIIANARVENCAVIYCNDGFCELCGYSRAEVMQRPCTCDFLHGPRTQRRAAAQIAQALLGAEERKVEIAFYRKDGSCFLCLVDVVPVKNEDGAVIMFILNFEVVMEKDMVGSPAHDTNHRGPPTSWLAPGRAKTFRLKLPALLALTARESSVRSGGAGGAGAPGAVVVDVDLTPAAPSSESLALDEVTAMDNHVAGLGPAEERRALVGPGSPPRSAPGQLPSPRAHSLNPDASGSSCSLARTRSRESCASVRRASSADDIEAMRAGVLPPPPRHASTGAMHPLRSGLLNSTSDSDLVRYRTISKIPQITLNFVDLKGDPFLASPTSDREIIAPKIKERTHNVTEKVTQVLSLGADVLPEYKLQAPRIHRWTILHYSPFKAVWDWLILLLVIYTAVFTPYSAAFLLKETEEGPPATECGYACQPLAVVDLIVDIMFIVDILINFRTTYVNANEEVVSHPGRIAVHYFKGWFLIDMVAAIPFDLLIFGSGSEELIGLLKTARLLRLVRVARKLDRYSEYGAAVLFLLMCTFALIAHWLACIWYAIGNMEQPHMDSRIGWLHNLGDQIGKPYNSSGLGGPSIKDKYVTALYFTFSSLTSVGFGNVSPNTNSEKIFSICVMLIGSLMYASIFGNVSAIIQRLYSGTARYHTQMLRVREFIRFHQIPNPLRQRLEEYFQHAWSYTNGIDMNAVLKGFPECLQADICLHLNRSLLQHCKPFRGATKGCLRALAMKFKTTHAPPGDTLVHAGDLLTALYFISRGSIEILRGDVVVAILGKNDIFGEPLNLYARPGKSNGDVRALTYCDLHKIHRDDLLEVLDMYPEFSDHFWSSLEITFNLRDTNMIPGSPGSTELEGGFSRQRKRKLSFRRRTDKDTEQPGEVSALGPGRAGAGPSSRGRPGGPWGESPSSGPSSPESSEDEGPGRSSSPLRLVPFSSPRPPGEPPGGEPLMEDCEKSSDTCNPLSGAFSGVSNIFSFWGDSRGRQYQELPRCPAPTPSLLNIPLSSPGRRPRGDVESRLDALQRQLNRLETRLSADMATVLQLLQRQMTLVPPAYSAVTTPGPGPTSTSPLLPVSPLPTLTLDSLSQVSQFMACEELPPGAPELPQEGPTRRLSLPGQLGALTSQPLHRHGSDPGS

| Compound | hERG current change (%, negative = inhibition) at 1uM [%] |
| --- | --- |
| O=C1CN=C(c2ccccc2)c2cc(Br)ccc2N1 | -7.91 |
| O=S(=O)(c1ccc(SCCO)nc1)N1CCOCC1 | 8.12 |
| COc1cccc(-c2nc(CS(=O)(=O)CC(=O)Nc3cc(OC)ccc3OC)c(C)o2)c1 | 19.8 |
| CCN(CC(=O)Nc1c(F)cccc1F)C(=O)CN1c2cccc3cccc(c23)S1(=O)=O | 7.74 |
| CCCCCc1ccc(-c2cn(Cc3ccc(C)cc3)nn2)cc1 | 18.5 |
| COc1ccc(-c2ccc3c(c2)S(=O)(=O)c2cccc(C(=O)NC[C@@H]4CCCO4)c2C3=O)cc1OC | 12.2 |
| CC1CC(C)CN(C(=O)C2CCN(S(=O)(=O)c3cccs3)CC2)C1 (stereo not drawn) | 7.1 |
| COc1ccc(NC(=O)c2ccc(-c3csc(C)n3)cc2)cc1 | 15.2 |
| C[C@@H]1C=C[C@](Cc2ccccc2)(C(=O)O)N1C(=O)c1ccccc1 | 15.4 |
| Cc1nccn1CCOc1ccc(Cl)cc1.O=C(O)C(=O)O | 4.54 |
| CCOc1ccc(CCNC(=O)CSc2cc(=O)n(C)c3ccccc23)cc1OCC | 8.52 |
| CN1CCN(C(=O)c2cc3c(s2)-c2ccccc2S(=O)(=O)C3)CC1 | 4.62 |
| CCCCOc1ccc(C2NC(=O)NC(C)=C2C(C)=O)cc1OCC (stereo not drawn) | 9.83 |
| c1ccc(CCCCN2C(Nc3ccccc3)=NC[C@@H]2Cc2ccccc2)cc1 | -39.7 |
| CN(C)C(=O)C12CCC(C)(C(=O)C1Br)C2(C)C (stereo not drawn) | 14.5 |
| CCC(NC(=O)c1cc(COc2cncc(Cl)c2)on1)c1ccc(C)cc1 (stereo not drawn) | 7.23 |
| CCCn1c(CNC(=O)Cc2ccccc2)nc2ccccc21 | -4.41 |
| CC(C)c1ccc(Nc2nnns2)cc1 | 14.3 |
| CN1CCC(CNC(=O)Nc2csc3ccccc23)CC1 | 9.1 |
| Fc1ccc(-n2cc(-c3ccccc3)c3c(=S)nc[nH]c32)cc1 | 6.55 |
| Cc1nc(NN)nc(NCc2ccccc2)n1 | 5.89 |
| COc1ccc(OC)c(C2=NS(=O)(=O)N(C)C(C(=O)NCc3cccs3)=C2)c1 | 19 |
| CC(C)Cc1cc(C(=O)N2CCCC(C(=O)c3cc(F)ccc3F)C2)no1 (stereo not drawn) | 6.18 |

| Compound | hERG current change (%, negative = inhibition) at 1uM [%] |
| --- | --- |
| CCOC(=O)c1c(C)[nH]c(C(=O)COC(=O)CNC(=O)C2CCCCC2)c1C | 4.97 |
| Cc1cc(C)c(C)c(S(=O)(=O)N2CCN(C(=O)C3CCC3)CC2)c1C | -0.0399 |
| COCCN(C(=O)CCl)C(C(=O)NC1CCCCC1)c1ccccc1C (stereo not drawn) | 7.15 |
| Cn1nnc(NC(=O)c2ccccc2F)n1 | 2.53 |
| O=C(NCCCN1CCOCC1)C(=O)NCC1OCCCN1S(=O)(=O)c1cc(F)ccc1F (stereo not drawn) | 17.7 |
| COc1ccc(COC(=O)NC2CCN(S(=O)(=O)c3ccc(OC)cc3)CC2)cc1 | 11.8 |
| O=C(Nc1ccccc1Cl)c1ccc2c(=O)n3c(nc2c1)CCC3 | 6.56 |
| O=C(CCC(=O)c1ccccc1)NCCOc1ccccc1 | 7.02 |
| COc1ccc(-n2nc3c(c2NC(=O)c2cc(Br)ccc2Cl)CS(=O)C3)cc1 (stereo not drawn) | -31.4 |
| Cc1cccc(N2CCN(CC3CCCCC3)CC2)c1C | 14.1 |
| C=CCNCC(=O)Nc1ccccc1SCC(=O)Nc1ccsc1C(=O)OC | -1.71 |
| O=C(CNC(=O)c1ccc(Cl)cc1Cl)OCC(=O)N1CCCC1=O | 3.65 |
| O=C(Nc1cccc2ncccc12)c1ccccc1[N+](=O)[O-] | 13.4 |
| COCCN1C(=O)C(=O)/C(=C(/O)c2cccc(OC)c2)C1c1ccco1 (stereo not drawn) | 21.4 |
| Cc1nc2ccc(C(=O)N3c4ccccc4CC3C)cc2s1 (stereo not drawn) | 7.37 |
| O=C(NCc1ccc2c(c1)OCO2)c1cnc2n(c1=O)CCS2 | 11.4 |
| COc1ccc(C)cc1NC(=O)c1cccc(C(=O)Nc2cc(C)ccc2OC)c1 | 8.18 |
| Cc1cc(OCC(=O)Nc2ccc(N3CCCC3)cc2)cc(C)c1Cl | 7.5 |
| NNC(=O)c1ccc(Cl)cc1Cl | 13.1 |
| C=C(C)C1CC=C(C)/C(=N/NC(=O)C2CC2c2ccccc2)C1 (stereo not drawn) | 11.1 |
| Cc1ccc(NS(=O)(=O)c2cc(NC(=O)C(C)Oc3ccccc3)ccc2C)c(C)c1 (stereo not drawn) | 6.5 |
| COc1ccc(NC(=O)Nc2nnc(N3CCCCC3C)s2)cc1OC (stereo not drawn) | 7.51 |
| COCc1cc(C)nc2sc(C(=O)Nc3ccccc3F)c(N)c12 | 12.3 |

| Compound | hERG current change (%, negative = inhibition) at 1uM [%] |
| --- | --- |
| CC(C)(C)N(Cc1ccccc1)C(=O)c1ccc2c(c1)OCCO2 | 5.7 |
| N=C(N)c1c(O)n(C2CCCCC2)c(=O)n(C2CCCCC2)c1=O | 12.2 |
| O=C(O)C1=C(C(=O)Nc2ccc(F)c(Cl)c2)CCCC1 | 15 |
| CN1C(=O)C(C)(C)c2cc(S(=O)(=O)N3CCCC(C(=O)Nc4ccc(Cl)cc4)C3)ccc21 (stereo not drawn) | 10.2 |
| CC1CCN(C(=O)C(Cc2ccccc2)n2cccc2)CC1 (stereo not drawn) | 13.1 |
| CC(C)(C(N)=O)N1CCN(c2ncc(C(F)(F)F)cc2Cl)CC1 | -26.5 |
| COc1ccccc1N(CC(=O)NCc1ccccc1)C(=O)CCC(=O)Nc1ccccn1 | 6.5 |
| CC(=O)CN1C(=O)NC2(CCCc3ccccc32)C1=O (stereo not drawn) | 19.6 |
| c1cnc(N2CCN(c3ccc4ccccc4n3)CC2)nc1 | 13.9 |
| COc1ccc(CCN(C(=O)Cn2nnc3ccccc32)C(C(=O)NCC2CCCO2)c2ccncc2)cc1OC (stereo not drawn) | 20.4 |
| CCOc1ccc(C(C(=O)NC2CCCCC2)N(CCOC)C(=O)c2snc(C(N)=O)c2N)cc1 (stereo not drawn) | -13 |
| Cc1ccc(S(=O)(=O)N2CCOCC2)cc1C(=O)OCC(=O)NC1CC1 | 0.895 |
| Cc1ccc(S(=O)(=O)N(CC(=O)N(C)C)c2cccc([N+](=O)[O-])c2)cc1 | 18 |
| CCn1c2ccccc2c2cc(C3N=C(N)Nc4nc5ccccc5n43)ccc21 (stereo not drawn) | -1.68 |
| CCN(CC)S(=O)(=O)c1ccc(OC(C)C)nc1 | 3.95 |
| CCOC(=O)N/N=C/c1ccc(C)o1 | 5.21 |
| Cc1nnc(NC(=O)CSc2nnc(-c3ccco3)o2)s1 | 11.6 |
| CCOc1ncccc1C(=O)OCC(=O)Nc1ccc(S(=O)(=O)N2CCOCC2)cc1 | 9.61 |
| COc1cc(/C=C/C(=O)Nc2cccnc2)cc(OC)c1OC | 18.3 |
| COc1ccc(-c2sc(Nc3ccc(F)c(F)c3F)nc2CCC(=O)NN)cc1 | 15.6 |
| CC(=O)c1ccc(N(CC(=O)NC2CCCC2)C(=O)c2ccc(C)s2)cc1 | 5.54 |
| CC(=O)c1ccc2c(c1)C1C=CCC1C(c1ccc(S(=O)(=O)N3CCOCC3)cc1)N2 (stereo not drawn) | 17.1 |
| N#Cc1ccc(CSCC(=O)O)cc1 | 13.5 |

| Compound | hERG current change (%, negative = inhibition) at 1uM [%] |
| --- | --- |
| CC(=O)N1CCN(C(=O)c2ccc(S(=O)(=O)Nc3ccccc3Cl)cc2)CC1 | 9.42 |
| OC[C@H]1OC(O)C[C@@H](O)[C@@H]1O (stereo partly drawn) | 9.68 |
| CCCCCCOc1ccc(C(CC(N)=O)C(=O)O)cc1 (stereo not drawn) | 13.1 |
| Cc1ccccc1N(CC(=O)NC1CCCCC1)C(=O)c1csnn1 | 16.1 |
| COc1ccc2nc(SCc3ccccc3)nc(C)c2c1 | 10.3 |
| O=C(O)c1ccc(S(=O)(=O)N2CCCc3ccccc32)cc1 | 3.23 |
| N/C(=N\OC(=O)c1ccccc1Cl)c1cccnc1 | -4.68 |
| Cc1ccc(NC2=NC(c3ccc(F)cc3)n3c(nc(C)cc3=O)N2)cc1 (stereo not drawn) | 11.9 |
| Cc1ccc(NS(=O)(=O)c2ccc(C(=O)N3CCC3)cc2)cc1 | 12.5 |
| CCC(Oc1ccccc1)C(=O)Nc1ccccc1C(=O)N1CCN(C)CC1 (stereo not drawn) | 10.5 |
| Cc1c(C)c(C)c2[nH]c(=S)[nH]c2c1C | 18.6 |
| Cc1ccc(C)c(Nc2c([N+](=O)[O-])ccc3nonc23)c1 | 17.4 |
| COCCCn1c(CCC(=O)O)ccc1-c1ccc(F)cc1 | 8.47 |
| O=C(/C=C/c1ccc([N+](=O)[O-])cc1)OCC(=O)N1c2ccccc2Sc2ccccc21 | 0.649 |
| CCOc1ccc(NC(=O)CCC(=O)NNC(=O)c2ccco2)cc1 | 10.1 |
| COC(=O)Cc1c(C)c2ccc(OCC(=O)N3CCOCC3)cc2oc1=O | 16.5 |
| Cc1nnsc1-c1nc2ccccc2[nH]1 | 6.79 |
| COc1ccc2oc(=O)c(/C(C)=N/Nc3ccccc3)cc2c1 | -1.96 |
| Clc1ccccc1-c1nn2c(-c3ccncc3)nnc2s1 | 10.6 |
| CCOCCCN(C(=O)Cn1nnc(-c2ccc(OC)c(OC)c2)n1)C(C(=O)NCC1CCCO1)c1ccc(F)cc1 (stereo not drawn) | 4.21 |
| N#Cc1ccsc1NC(=O)CN1CCN(c2ccccc2O)CC1 | 7.72 |
